Source: the supplement of paper PMC4723716
Whole data set: some 3,600 compounds, median “viability index relative to DMSO control” near 0.81, cut for the lowest 2% near 0.13. This is one part of the list.

Test system: Plasmodium falciparum NF54 stage V gametocytes
Experiment: viability index relative to DMSO control (fraction); higher = less gametocyte killing
Conditions: 1.25 µM, incubation time: 72 h
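Further: 384-well serum-free SaLSSA: MitoTracker Red CMXRos staining with saponin lysis, high-content imaging, treated-well particle count divided by plate-mean count of DMSO wells.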

Structure (SMILES)	viability index
Cc1cc(Nc2ccc(O)cc2)nc2cccc(O)c12	0.735
CCCCN1C(=O)NC(c2ccc(NC(=O)c3cccs3)cc2)C(C(=O)OC(C)C)=C1C (centres undefined)	0.726
COCCOC(=O)C1=C(C)NC2=C(C(=O)CC(c3ccc(OC)c(OC)c3)C2)C1c1ccc(F)cc1 (centres undefined)	0.753
O=C(C=Cc1ccccc1)c1c(-c2ccccc2)c2cc([N+](=O)[O-])ccc2[nH]c1=O	0.734
CC(=O)c1cccc(CN2CCC(C(=O)Nc3ccc(-n4nc(C)cc4C)cc3)CC2)c1	0.942
O=C(CSc1ccc2nnc(-c3cccs3)n2n1)Nc1ccc2c(c1)OCCO2	1.11
COc1ccc2cc(C)c3nnc(SCC(=O)N4CCN(C(=O)c5ccco5)CC4)n3c2c1	0.556
CC(C)N1CCc2c(sc(NC(=O)C(C)(C)C)c2C(N)=O)C1	0.897
CC(=O)Nc1nc(C)c(-c2csc(Nc3ccc(Br)cc3)n2)s1	0.322
CC(C)(C)NC(=S)NN=CC=NNC(=S)NC(C)(C)C	0.299
CCc1cc(C(=O)N2CCC[C@@H]3CN(C(=O)c4ccc(F)cc4)CC[C@@H]32)n(C)n1	1.21
CCN1CCN(CC=Cc2ccccc2[N+](=O)[O-])CC1	0.804
O=C(O)C(Cc1ccc([N+](=O)[O-])cc1)NS(=O)(=O)c1ccc(OC(F)(F)F)cc1 (centres undefined)	0.813
CC(C)CN1C(=O)c2ccccc2C(C(=O)NC2CCCCC2)C1c1cccs1 (centres undefined)	0.727
O=C(CC1SC(=Nc2ccccc2)NC1=O)Nc1cc(Cl)ccc1Cl (centres undefined)	0.539
O=C(NC(=CC=Cc1ccccc1)C(=O)N1CCOCC1)c1ccc(Br)cc1	1.25
Cc1cc(I)ccc1NC(=O)CNC(=O)OCc1ccccc1	1.19
CCOc1ccc(C(=O)Nc2cc(OC)ccc2OC)cc1	1.04
COc1ccc2c(c1)N(C)C(=Cc1cccc[n+]1C)S2	0.965
COc1cc(C2C3=C(CC(C)(C)CC3=O)Nc3ccccc3N2C(=O)C(C)C)cc(OC)c1OC (centres undefined)	1.15

Structure (SMILES)	viability index
COc1ccc(-c2ncc([C@@H]3C[C@H]4CN(c5ccccc5)C(=O)[C@]45CCCN35)cn2)cc1	0.74
Cc1cc(C(C)(C)C)cc(S(=O)(=O)NCCO)c1C	1.31
Cc1cc(N2CCN(Cc3ccccc3)CC2)n2c(nc3ccccc32)c1C#N	0.757
CC(=NNC(=O)c1ccc([N+](=O)[O-])cc1)c1cccc([N+](=O)[O-])c1	0.771
COc1ccc(C2CC(=O)C3=C(C2)NC(C)=C(C(=O)OC(C)C)C3c2cccc(C)c2)cc1OC (centres undefined)	0.834
CCc1c(C)nc2cc(-c3cc(OC)cc(OC)c3)nn2c1NCCCn1ccnc1	0.75
Oc1ncnc2c1C(c1ccccc1)c1c(O)ncnc1O2	1.03
CC(C)CCN(CCC(C)C)CC(O)Cn1c2ccc(Cl)cc2c2cc(Cl)ccc21 (centres undefined)	0.614
O=C(Nc1ccc(-c2noc(CCc3ccccc3)n2)cc1)c1cccs1	0.66
CCCCCCCC[n+]1c(C)n(C)c2cc(Cl)c(Cl)cc21	0.817
Cc1ccc(C)c(Nc2nc(NCC3CCCO3)c3ccccc3n2)c1 (centres undefined)	0.939
COc1cccc(NC(=O)Cn2c(C)c(C#N)c3ccccc32)c1	0.417
CC[n+]1c(C=CN(C)c2ccccc2)n(-c2ccccc2)c2ccc(-c3nc4ccccc4s3)cc21	0.163
O=C(NCCCN1CCOCC1)c1c[nH]c2ccc(S(=O)(=O)N3CCc4ccccc43)cc2c1=O	0.875
N#Cc1c(N)nc2sc(C(=O)c3ccc(F)cc3)c(N)c2c1-c1ccccc1	0.784
COc1ccc(CCNC(=O)CC(=O)NN=Cc2ccc(Br)cc2)cc1OC	0.902
CCN(CC)CCN(Cc1cc2cc(OC)ccc2[nH]c1=O)C(=S)Nc1cccc(Cl)c1	0.57
C=CC[N+]1(CC#Cc2cccc3ccccc23)CCCCC1	0.753
O=C(c1ccc(F)cc1Cl)N1CCN(c2nc(-c3cccs3)ns2)CC1	0.988
CC(=NNC(=O)c1ccc(C)cc1)c1ccccn1	0.294

Structure (SMILES)	viability index
CCCCN(CCCC)S(=O)(=O)c1nc(C)c(Cl)c(C)c1C#N	0.808
Clc1cccc(Cl)c1C[n+]1ccc2ccccc2c1	0.749
O=C(c1cccs1)N1CCN(c2ccc([N+](=O)[O-])c(NC3CC3)c2)CC1	0.641
CN(C)CCn1cnc2sc3c(c2c1=O)CCC(NCc1cccc(Cl)c1)C3 (centres undefined)	1.06
Oc1ccc(Cl)cc1CNc1nc2ccccc2[nH]1	1.16
Cc1ccc(-c2cc3nc4c(c(O)n3n2)CCCC4)cc1	0.828
O=[N+]([O-])c1cc(Cl)c(N2CCOCC2)cc1N1CCOCC1	0.793
Cc1ccc(S(=O)(=O)c2c(COC(=O)c3cccc(C)c3)c(-c3ccccc3)nn2C)cc1	0.755
CC=Cc1n(C)c2ccccc2[n+]1C	0.826
CCOc1ccc2[nH]c(=O)c(C(c3nnnn3CCOC)N3CCCC3)cc2c1 (centres undefined)	0.743
COc1ccc(/C=C(\NC(=O)c2ccccc2Br)C(=O)N2CC3CC(C2)c2cccc(=O)n2C3)cc1OC (centres undefined)	0.868
Cc1cccc[n+]1CCCCCCCCCC[n+]1ccccc1C	0.696
CN(C)c1cc(NC(=O)Nc2ccccc2)c2ccccc2n1	1.44
C=CCOC(=O)C1=C(C)N=C2SCCC(=O)N2C1c1ccc(OC(=O)c2ccco2)cc1 (centres undefined)	0.896
Cc1ccc(N(C)C(=O)CCNS(=O)(=O)c2cc(Br)cnc2N)cc1	1.06
CCN1CCN(c2ccc(Nc3c4ccccc4nc4ccccc34)cc2)CC1	0.702
CCSc1nc2sc3c(c2c(=O)n1CC)CCN(C)C3	1.01
CC(=O)c1ccc2c3c(onc13)-c1ccccc1C2=O	0.698
COC(=O)C1=CNC=C(C(=O)OC)C1c1cc(OC)c(OC)c(OC)c1	0.789
